# Reference: PubChem BioAssay AID504466 (National Center for Advancing Translational Sciences (NCATS), 2011)
# Screen size: about 330,000 compounds; about 4,200 (1.3%) were called active. Inconclusive results, whose numbers are uncertain, are shown with a selection of clear calls. Calls come from the whole dose curve; as a rule, active = well fitted activation curve with a large enough effect; inconclusive = small, poorly fitted or top-dose-only effect; inactive = no such curve, though single readings can be large or run the other way. Potencies of inconclusive entries are doubtful fits and often do not repeat.
# Experiment: qHTS screen for small molecules that induce genotoxicity in human embryonic kidney (HEK293T) cells expressing luciferase-tagged ELG1; note: nearly all actives have a fitted effect of over 60% in size; for activity change, positive = activation: % of control where 0% means no effect
# Conditions: HEK293T ELG1-luciferase reporter, luminescence, 16 h; series mostly up to 46 µM
# How it was run: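 ELG1-luciferase HEK293T cells, 2,000/well; compound pinned in; 16 hr, 37 °C, 5% CO2; ONE-Glo, 30 min RT; luminescence on CCD imager.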
# Potency is the fitted concentration of half-maximal effect; tags give direction and shape of the fitted curve.
Compound,Potency,"activity change, positive = activation"
CNc1ncc(C(=O)c2ccc(-c3ccccc3)cc2)s1,"inconclusive: 6.51 µM [activator, partial curve, poor fit]",
Cc1ccc(N2C(=O)CC(N3CCN(c4ccccn4)CC3)C2=O)cc1 (stereo not given),inactive,
CN(C)c1ccc(C(=O)N/N=C/c2cc(Br)cc(Br)c2O)cc1,"inconclusive: 32.6 µM [activator, partial curve, poor fit]",
C=CCn1c(N)c(C(=O)Nc2ccc(C)cc2)sc1=S,"inconclusive: 2.91 µM [activator, full curve]",
Cc1ccccc1OCc1nnc2c3cnn(C)c3ncn12,"inconclusive: 20.6 µM [activator, partial curve]",
CC(=O)C1=C(C)NC(SCC(=O)c2ccccc2)=C(C#N)C1c1ccco1 (stereo not given),"inconclusive: 11.6 µM [activator, partial curve]",
COc1cccc(NC(=O)c2oc3ccccc3c2NC(C)=O)c1,"inconclusive: 8.2 µM [activator, partial curve, poor fit]",
CSc1ccc(/C=N/NC(=O)c2cccc(Cl)c2)cc1,"inconclusive: 5.8 µM [activator, partial curve]",
COc1ccc(-c2nnc(SCC(=O)/C(C#N)=C(\C)N)o2)cc1,active: 1.03 µM,
Nc1c(-c2cccs2)cnc2c(-c3ccc(F)cc3)cnn12,active: 2.59 µM,
COc1ccccc1-c1c(C#N)c(N)nc2c1CCc1ccccc1-2,"inconclusive: 23.1 µM [activator, partial curve, poor fit]",
CN(C(=O)c1ccco1)c1nnc(-c2ccc(F)cc2)s1,"inconclusive: 2.91 µM [activator, full curve]",
CC1CCc2nc(NC(=O)c3ccco3)sc2C1 (stereo not given),"inconclusive: 0.164 µM [activator, full curve]",
COc1cccc(-c2cc(C(=O)Nc3ccc4c(c3)OCO4)no2)c1,"inconclusive: 20.6 µM [activator, partial curve, poor fit]",
O=C(N/N=C/c1cc(Br)cc(Br)c1O)c1ccncc1,"inconclusive: 32.6 µM [activator, partial curve, poor fit]",
COc1ccc(C2=NN3C(C2)c2ccccc2OC3c2cccs2)cc1 (stereo not given),"inconclusive: 9.2 µM [activator, partial curve]",
Cc1cccnc1NC(=S)NC(=O)c1cccs1,"inconclusive: 7.31 µM [activator, partial curve]",
O=C(NCc1ccccn1)Nc1ccc2c(c1)OCO2,"inconclusive: 31.6 µM [activator, single point]",
c1ccc(-c2ccc(-c3cn4c(n3)CCC4)cc2)cc1,"inconclusive: 1.26 µM [activator, partial curve, poor fit]",
O=C(NC1=NCCS1)c1csc2ccccc12,"inconclusive: 8.2 µM [activator, partial curve]",
CCOC(=O)N1CCN(c2nc(-c3ccc(Cl)cc3)cs2)CC1,"inconclusive: 17.8 µM [activator, partial curve, poor fit]",
COc1ccc(C(=O)N/N=C(\C)c2cccc(NC(=O)c3ccc(F)cc3)c2)c(OC)c1,inactive,
CC(C)c1ccc(C(=O)NN2C(=O)C3CCCCC3C2=O)cc1 (stereo not given),"inconclusive: 14.6 µM [activator, partial curve]",
O=C(Nc1ccc(N2CCCC2)c(Cl)c1)c1ccc([N+](=O)[O-])cc1,inactive,

Compound,Potency,"activity change, positive = activation"
CCC1(c2ccc(F)cc2)NC(=O)N(CC(=O)N2CCc3ccccc32)C1=O (stereo not given),inactive,
COc1cccc(CNC(=O)COC(=O)c2nc(Cl)c(Cl)c(Cl)c2Cl)c1,"inconclusive: 29.1 µM [activator, partial curve, poor fit]",
COc1ccc(OCC(=O)Nc2ccccc2O)cc1,active: 9.2 µM,
CC1(C2CC2)NC(=O)N(CC(=O)N2CCN(c3ccccc3Cl)CC2)C1=O (stereo not given),inactive,
O=C(Nc1ccc2oc(-c3ccccc3)nc2c1)C1CCCO1 (stereo not given),active: 18.4 µM,
Cc1ccc(OCCNc2ccc(S(=O)(=O)N3CCCC3)cn2)cc1,inactive,
Cc1ccc(C2=NN(S(C)(=O)=O)C(c3cccs3)C2)cc1 (stereo not given),"inconclusive: 16.4 µM [activator, partial curve, poor fit]",
C=CCn1c(COc2cccc(C)c2C)nnc1SCC(=O)N1CCN(c2ccccc2)CC1,inactive,
N/C(=N\OC(=O)c1ccc2ccccc2c1)c1ccccc1Cl,active: 23.1 µM,
CC(Cc1cccs1)NC(=O)Nc1ccc(F)cc1 (stereo not given),"inconclusive: 16.4 µM [activator, single point]",
CC[C@]12c3[nH]c4cc(CCC(=O)N(C)C)ccc4c3CCN1C(=O)[C@@H](CC(=O)NCCC1=CCCCC1)C[C@@H]2C(=O)N1CCN(C(=O)c2ccco2)CC1,"inconclusive: 23.1 µM [activator, single point]",
CC1CCC/C(=C\Nc2ccccc2C(=O)O)C1=O (stereo not given),inactive,
Cc1cc(C)n(-c2ncc(-c3ccccc3)nn2)n1,"inconclusive: 18.4 µM [activator, partial curve]",
Cc1cccc(-c2nc(Nc3ccc(N4CCOCC4)cc3)c3ccccc3n2)c1,inactive,
O=C(NCCN1CCOCC1)c1cc(-c2ccccc2)on1,active: 18.4 µM,
CN(C)c1ccc(/C=N/NC(=O)CCCCCNC(=O)c2ccccc2)cc1,"inconclusive: 23.1 µM [activator, partial curve, poor fit]",
CC1(C)CC(=O)C(N=Nc2cccc([N+](=O)[O-])c2)=C(O)C1,active: 18.3 µM,
COc1ccc(C(=O)/C=C/c2ccc(F)cc2)c(OC(=O)c2ccc([N+](=O)[O-])cc2)c1,"inconclusive: 20.6 µM [activator, single point]",
C/C(=C\c1ccccc1)C(=O)NCCCn1ccnc1,inactive,
COc1ccc(-c2cc(C(F)(F)F)n3nc(N)nc3n2)cc1,"inconclusive: 18.4 µM [activator, single point]",
OCCCNc1ncnc2oc(-c3ccccc3)c(-c3ccccc3)c12,inactive,
CCOC(=O)c1ccc(Cn2c(-c3ccccc3)nnc2-c2ccccc2)o1,"inconclusive: 20.6 µM [activator, partial curve, poor fit]",
COc1ccc(COC(=O)c2cccc(S(=O)(=O)N3CCN(C(C)=O)CC3)c2)cc1F,"inconclusive: 6.51 µM [activator, single point]",
COc1ccccc1NC(CC(=O)c1ccccc1)C(=O)OCC(=O)c1ccc(F)cc1 (stereo not given),active: 1.64 µM,

Compound,Potency,"activity change, positive = activation"
CCCCn1c(=O)[nH]c2nc3cc(NC(C)=O)ccc3nc2c1=O,"inconclusive: 29.1 µM [activator, partial curve, poor fit]",
O=C(C1CCCN(S(=O)(=O)c2cccc3nsnc23)C1)N1CCc2ccccc2C1 (stereo not given),inactive,
CCC(C(=O)NCCC1=CCCCC1)n1nc(C)c2c(C)n(-c3ccccc3)nc2c1=O (stereo not given),inactive,
COc1ccc(-c2cc3ccccc3oc2=O)cc1NC(=S)NC(=O)c1ccc2c(c1)OCCO2,"inconclusive: 7.31 µM [activator, partial curve]",
C/C(=N\NC(=O)c1ccccc1O)C1C(=O)c2ccccc2C1=O,active: 8.2 µM,
CC1(C)CC(=O)c2cnc(N3CCc4ccccc43)nc2C1,"inconclusive: 8.2 µM [activator, partial curve]",
O=C(/C=C\c1ccccc1OC(=O)c1ccccc1F)c1cc2ccccc2o1,active: 16.4 µM,
COc1cccc(-c2nnc(NC(=O)c3ccc(Cl)s3)o2)c1,"inconclusive: 29.1 µM [activator, single point]",
COc1ccc2c(c1)CC/C(=C/c1ccco1)C2=O,"inconclusive: 2.06 µM [activator, full curve]",
O=C(CSc1nnc(-c2ccncc2)o1)Nc1cc(F)ccc1F,"inconclusive: 8.2 µM [activator, partial curve, poor fit]",
O=C(Nc1ccc2c(c1)CCC2)c1cnc(Cl)c(Cl)c1,"inconclusive: 23.1 µM [activator, partial curve, poor fit]",
CCN(C(=O)Cn1cnc2c1c(=O)n(C)c(=O)n2C)C1CCCCC1,inactive,
CNC(=S)N/N=C/c1ccc(-c2ccc(C(=O)O)cc2)o1,"inconclusive: 18.3 µM [activator, partial curve, poor fit]",
O=C(Nc1ccc(C(=O)O)cc1)/C(=C\C=C\c1ccccc1)NC(=O)c1ccccc1Cl,inactive,
O=[N+]([O-])c1ccc(O)c2ncccc12,"inconclusive: 32.6 µM [activator, partial curve, poor fit]",
CCOC(=O)c1c(S(=O)(=O)NCC(C)c2ccccc2)c(C)n(C)c1C (stereo not given),,inactive: -0.35% [at 9.26 µM]
Cc1ccc(C(=O)N2CCc3ccccc32)o1,"inconclusive: 11.6 µM [activator, partial curve]",
COc1ccc(-c2csc(NC(=O)COC(=O)Cc3ccc(Cl)cc3Cl)n2)cc1,active: 23.1 µM,
N#C/C(=C\c1cccs1)C(=O)Nc1nccs1,"inconclusive: 9.2 µM [activator, partial curve]",
CCc1ccc(OCC(=O)NCCOc2ccccc2)cc1,"inconclusive: 29.1 µM [activator, partial curve, poor fit]",
Cc1cc(C)nc(SCC(=O)Nc2ccc(N3CCOCC3)c(Cl)c2)n1,"inconclusive: 17.8 µM [activator, single point]",
Cc1cc(C)cc(NC(=O)CSc2ccc(-c3ccccn3)nn2)c1,"inconclusive: 29.1 µM [activator, partial curve, poor fit]",
